The test system of this test is BDF1 mice, B16 melanoma ip, median survival T/C. The test can be described thus: NCI In Vivo Anticancer Drug Screen. Data for tumor model B16 Melanoma (intraperitoneal) in B6D2F1 (BDF1) mice. Conditions: endpoint: median survival time, higher = longer survival. On the procedure:
The antitumor activity of compounds was measured in mice bearing transplantable tumors. Survival or tumor size were measured and the results are expressed as the measurement made in the treated group (T) divided by the measurement made in the vehicle treated control group (C). The tumor model used in this assay is B16 Melanoma (intraperitoneal) in B6D2F1 (BDF1) mice

Inconclusive results and toxic doses are left out. Certain results were filed several times, with different values. This is not the full list of results. An entry can have further records. Results that share an entry do not match, cause unknown; dose, time, organism, isomer or construct need not be as stated for each record.

On to `CC(=O)O[C@H]1C(=O)O[C@@H]2C[C@H]3C(C)=CC(=O)[C@@H](O)[C@]3(C)[C@H]3[C@@]4(O)OC[C@]32[C@@H]1[C@@H](C)[C@H]4O`, for which the T/C by setting is: (dose: 3.0 mg/kg/injection, schedule: Q01DX009 (ip), vehicle: saline) 104 % of control and 176 % of control; (dose: 6.0 mg/kg/injection, schedule: Q01DX009 (ip), vehicle: saline) 115 % of control and 152 % of control.
`Cc1cnc(/C=N\NC(N)=S)c2cccc(N)c12`: where the note is “dose: 50.0 mg/kg/injection, schedule: Q01DX009 (ip), vehicle: saline with Tween-80”, the T/C was 95 % of control and 150 % of control.
As for `CC1OC(=O)C(C(C)C)NC(=O)C(C(C)C)OC(=O)C(C(C)C)NC(=O)C(C)OC(=O)C(C(C)C)NC(=O)C(C(C)C)OC(=O)C(C(C)C)NC(=O)C(C)OC(=O)C(C(C)C)NC(=O)C(C(C)C)OC(=O)C(C(C)C)NC1=O` (configuration not stated), the T/C by setting is: (dose: 0.05 mg/kg/injection, schedule: Q01DX009 (ip), vehicle: DMSO) 109 % of control and 156 % of control; (dose: 0.1 mg/kg/injection, schedule: Q01DX009 (ip), vehicle: DMSO) 114 % of control and 179 % of control.
Consider `COc1cc(NS(C)(=O)=O)ccc1Nc1c2ccccc2nc2ccccc12`, for which the T/C is, setting by setting: (dose: 1.0 mg/kg/injection, schedule: Q01DX009 (ip), vehicle: other) 120 % of control and 161 % of control; (dose: 4.0 mg/kg/injection, schedule: Q04DX003 (ip), vehicle: other) 121 % of control and 154 % of control.

The values above are taken from PubChem BioAssay AID192 (DTP/NCI, 2004).
